In this experiment the target is Glycogen synthase kinase-3 beta (Homo sapiens) (UniProt P49841). Put plainly: GSK3beta kinase inhibitors, SAR follow-up, biochemical, ADP-Glo luminescence, dry powder samples (AID 623998). Conditions: GSK3beta ADP-Glo luminescence kinase assay, 60 min.

The structures appear in SMILES notation. Results filed as inconclusive are left out. Certain results were filed several times, with different values. This is not the full list of results. The source may hold further records. Values that stand side by side repeat one measurement in other runs, samples, wells, individuals or studies. Records carry a tag for their origin. Letters count within one entry.

What is called AC50 is the concentration at which the activity in the assay is half-maximal. A high value points to activity only at high concentration.

Sequence of UniProt P49841 (P49841 whole entry, looked up): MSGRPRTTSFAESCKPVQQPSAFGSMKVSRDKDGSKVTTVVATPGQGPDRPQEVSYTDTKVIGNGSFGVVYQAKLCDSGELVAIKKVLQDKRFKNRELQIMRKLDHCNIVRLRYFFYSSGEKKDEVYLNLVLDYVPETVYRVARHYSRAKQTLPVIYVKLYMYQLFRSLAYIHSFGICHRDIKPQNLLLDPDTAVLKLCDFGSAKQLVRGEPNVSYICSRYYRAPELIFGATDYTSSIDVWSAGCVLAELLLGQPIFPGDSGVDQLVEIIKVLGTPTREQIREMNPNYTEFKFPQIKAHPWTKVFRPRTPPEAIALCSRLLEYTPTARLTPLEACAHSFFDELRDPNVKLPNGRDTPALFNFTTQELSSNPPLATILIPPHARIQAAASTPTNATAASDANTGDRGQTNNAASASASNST

For `COc1ccccc1[C@@H]1C2=C(CC(C)(C)CC2=O)Nc2n[nH]c(C)c21`, the AC50 was 12.6 nM [sample A] and 7.37 µM [sample B].

The values above are taken from PubChem BioAssay AID623998 (Broad Institute, 2012).
